Experimental data as given in the supplement of paper PMC3334620.
In all, about 33,000 sequences were measured (“E-score (-0.5 to 0.5)”: median about -0.012, highest 2% from about 0.29 on). The list shows a part of the results.

target: T1, Ybr033w (UniProt P38073); assay: PBM E-score (8-mer binding enrichment) (E-score (-0.5 to 0.5)); higher = stronger / more preferred TF binding; most listed sequences are background and not binding sites; details: protein concentration: 200 nM; construct: GST-full length
T1 sequence: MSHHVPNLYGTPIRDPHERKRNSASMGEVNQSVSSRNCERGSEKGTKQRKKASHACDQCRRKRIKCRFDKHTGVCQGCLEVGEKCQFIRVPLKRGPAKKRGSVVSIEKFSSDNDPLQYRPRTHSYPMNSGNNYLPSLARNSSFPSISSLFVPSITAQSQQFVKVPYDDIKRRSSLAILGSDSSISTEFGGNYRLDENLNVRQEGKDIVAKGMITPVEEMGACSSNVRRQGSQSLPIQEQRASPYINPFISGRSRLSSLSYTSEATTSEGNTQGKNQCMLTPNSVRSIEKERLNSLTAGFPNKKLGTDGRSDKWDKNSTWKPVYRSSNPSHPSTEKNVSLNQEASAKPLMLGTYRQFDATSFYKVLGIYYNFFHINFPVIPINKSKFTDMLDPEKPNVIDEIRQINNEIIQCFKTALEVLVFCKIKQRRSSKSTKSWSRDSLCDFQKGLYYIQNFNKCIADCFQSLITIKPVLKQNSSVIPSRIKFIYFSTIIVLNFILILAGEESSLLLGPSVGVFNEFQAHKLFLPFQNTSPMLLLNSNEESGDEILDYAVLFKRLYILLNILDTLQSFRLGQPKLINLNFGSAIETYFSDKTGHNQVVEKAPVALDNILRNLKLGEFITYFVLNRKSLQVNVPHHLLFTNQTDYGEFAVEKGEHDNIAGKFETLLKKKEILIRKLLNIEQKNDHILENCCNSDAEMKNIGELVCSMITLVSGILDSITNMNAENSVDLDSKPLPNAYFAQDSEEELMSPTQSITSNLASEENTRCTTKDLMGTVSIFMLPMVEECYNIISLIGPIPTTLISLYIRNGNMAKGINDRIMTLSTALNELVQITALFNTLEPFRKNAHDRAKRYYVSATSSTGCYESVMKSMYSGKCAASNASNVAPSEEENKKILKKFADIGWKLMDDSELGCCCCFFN
In short: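 E-scores (a modified Wilcoxon-Mann-Whitney statistic) were assigned by the Universal PBM Analysis Suite to every ungapped eight-base word pooled with its reverse complement. The input came from universal all-10-mer Agilent arrays made double-stranded by primer extension and probed with GST-tagged yeast transcription factors at about 100-200 nM. Fluorescent anti-GST detected bound protein, and masliner normalised the scans.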

Sequence | PBM E-score
GGATACCC | -0.00499
CGCGTCCA | -0.115
CGCCTTTC | -0.182
ATAAATGA | 0.213
GCTTCTCA | -0.112
CCGGTAGG | -0.127
AACTACTC | 0.119
CCTCGGGA | -0.162
AGTCTTTC | -0.113
CACTCGGC | -0.0886
ATGCACCA | -0.00737
AACTTTAC | 0.238
AAGCGAAT | 0.15
CATAATAG | 0.134
GTACCACA | 0.121
CGGGCAAC | -0.234
CGACCCGC | -0.195
CCATATCA | 0.0559
AGCTTCAT | 0.0861
GTTTTTTA | 0.182
ACGCCTGG | 0.00952
CTTATAAA | 0.153

Sequence | PBM E-score
CGCAAACA | 0.162
CTCCTGTA | -0.0209
CAAATAGC | 0.0702
CAGTGGCC | -0.243
CCCCTTGC | -0.284
ACGACCGC | -0.0954
ACGGAACG | 0.0187
ACTAGTTA | 0.0573
CCTAATAC | 0.149
ATGGCTGC | -0.295
GTCTAGTA | 0.131
TCAGAAGA | -0.0313
AGTCATAA | 0.152
CTGGGAAA | 0.135
AATCAGAC | 0.0659
CAGAGCTG | -0.114
TCATCTAA | 0.0895
AGATGACA | -0.0646
GGAGAAAA | 0.175
TATCCGGA | 0.269
CCACAACG | -0.14
ATTCTTTA | 0.222

Sequence | PBM E-score
GCCATGCA | -0.00628
CAATCGTG | -0.12
CCGGGGCG | -0.142
CATCCACG | -0.0395
GCCGTAAA | 0.17
AAGGTCGA | -0.0242
GGTAGTAA | -0.031
GGTCGAAC | -0.0499
GCGCGCTA | 0.143
GTATCTCA | 0.239
AGATTGCG | 0.0921
CACCGTCA | -0.00093
AATATATC | 0.281
AGGAAAAT | 0.379
ATTACCAC | 0.228
AACTGACA | 0.0411
GAAGCTTA | 0.0854
GAGACGGC | -0.042
CGGCACCA | -0.1
CTATGTAC | 0.0927
AACTAATC | 0.192
GGATCAGA | -0.191

Sequence | PBM E-score
AATACCAA | 0.195
GATTAAGA | 0.213
AAGCCATA | 0.0179
ACGCTCCC | -0.124
TCTTTTCA | 0.0439
GAACGGTC | -0.157
GACCACTA | -0.046
AATAGACA | 0.00401
AAATTGCG | 0.0741
CTCTATGA | 0.122
AGGAGAAA | 0.221
GTGTACAA | 0.232
GGCTTTAC | 0.0346
ACCGGAGT | -0.111
ATCTAGAT | -0.0597
ACAAGTCC | 0.058
AGGTTTGG | -0.0994
CAGTGCCA | -0.25
CTCTTAGC | -0.0614
ATGAACTC | 0.0731
ATCAGTCA | 0.00279
GAATAACA | 0.367

Sequence | PBM E-score
CGACATCA | 0.101
AGCGGCGC | -0.27
AGATAGTA | 0.194
GGGAGCCA | -0.342
GAAGGGTC | -0.246
GCCCTTAA | -0.0102
CATCACAA | 0.207
TATCGCCA | -0.0288
CCCGACGG | -0.164
ATAAGTTC | 0.249
ACAAGTCT | 0.061
TATCGACA | -0.119
GTGATCCA | -0.0579
GAACTACA | 0.0742
CACTCGTC | -0.0452
AGACATAT | 0.224
AAAGCCGG | -0.0185
CTACTCAG | -0.0742
CTAAGGGA | 0.0981
TACGTGAA | -0.048
AATGCCTG | -0.153
AGCGGTCC | -0.0767
